5 compounds from PubChem BioAssay AID232 (DTP/NCI, 2004) can be followed below.

In the assay the test system is Gardner 6C3HED lymphosarcoma ip, C3AKF1 mice, survival T/C. Put plainly: NCI In Vivo Anticancer Drug Screen. Data for tumor model Lymphosarcoma Gardner 6C3HED (intraperitoneal) in C3AKF1 (CHKRF1) mice. As to conditions: endpoint: survival time, mean or median, schedule: Q01DX010 (ip), higher = longer survival. Here is the method:
The antitumor activity of compounds was measured in mice bearing transplantable tumors. Survival or tumor size were measured and the results are expressed as the measurement made in the treated group (T) divided by the measurement made in the vehicle treated control group (C). The tumor model used in this assay is Lymphosarcoma Gardner 6C3HED (intraperitoneal) in C3AKF1 (CHKRF1) mice

Inconclusive results and toxic doses are left out. For part of its entries the source gives two or more results. They are shown here; other results are not. The source may hold further records. The values listed for one entry are repeated measurements (runs, samples, wells, individuals or studies). Numbered stars: 1 amine (or outer) side, 2 acyl side, 3 side chain; on linkers, the order of the positions; unused ones are H or OH. Bridge positions count the residues as written; N and C are the ends. Square brackets hold non-standard residues; d marks the D form. Peptide text beside a SMILES is read from it. I, II: the chains in the order shown. Actinocin(9to1) = Cc1c2oc3c(C)ccc(C(=O)[*:1])c3nc-2c(C(=O)[*:2])c(N)c1=O; aThr = C[C@H](O)[C@H](N)C(=O)O; NMeV = CN[C@H](C(=O)O)C(C)C; Sar = CNCC(=O)O

Consider `N=[N+]=CC(=O)OCC(N)C(=O)O` (stereo unspecified), for which, under “dose: 12.5 mg/kg/injection, vehicle: saline”, the T/C is 115 % of control and 155 % of control.

Regarding `CCN(CC)CCNc1ccc(C)c2sc3ccccc3c(=O)c12`, under “dose: 100.0 mg/kg/injection, vehicle: saline”, the T/C is reported as 108 % of control, 123 % of control, 157 % of control. Regarding `Oc1cc(CN(CCCl)CCCl)c(O)cc1CN(CCCl)CCCl`, the T/C (dose: 1.25 mg/kg/injection, vehicle: saline) is 108 % of control and 150 % of control. `NC(Cc1ccc(N(CCCl)CCCl)cc1)C(=O)O` (stereo unspecified): under “dose: 2.0 mg/kg/injection, vehicle: saline”, the T/C is 120 % of control and 150 % of control. For the compound `Cc1c2oc3c(C)ccc(C(=O)N[C@@H]4C(=O)N[C@H](C(C)C)C(=O)N5CCC[C@H]5C(=O)N(C)CC(=O)N(C)[C@@H](C(C)C)C(=O)O[C@H]4C)c3nc-2c(C(=O)N[C@@H]2C(=O)N[C@H](C(C)C)C(=O)N3CCC[C@H]3C(=O)N(C)CC(=O)N(C)[C@@H](C(C)C)C(=O)O[C@H]2C)c(N)c1=O` (I: [aThr][dV]P[Sar][NMeV] / II: [aThr][dV]P[Sar][NMeV]; ester I:1-I:C, II:1-II:C; linker I:N-II:N via Actinocin(9to1)), the T/C reads like this: (dose: 0.05 mg/kg/injection, vehicle: acid diluted with saline) 120 % of control and 175 % of control; (dose: 0.1 mg/kg/injection, vehicle: acid diluted with saline) 110 % of control and 185 % of control.
